# No end group written: not given here.
# Tests used:
# [1] = tested on: SK-N-SH cells transfected with EGFP-HDQ74; assay: EGFP-HDQ74 aggregate formation and cell death in transfected SK-N-SH cells (odds ratio)
# LC3-II [2] = assay: Endogenous LC3-II levels in PC12 cells (anti-LC3 immunoblot); type: cell-based; details: 24 h
# Excerpt: (§1) When autophagy is induced, the microtubule-associated protein 1 light chain 3 (LC3) is processed post-translationally into LC3-I, and then to LC3-II, which associates with autophagosome membranes (5). Quantification of the number of cells with LC3-positive vesicles or LC3-II levels (versus actin) allows for a specific and sensitive assessment of autophagosome number in large numbers of cells (17).
# Samples were subjected to SDS-polyacrylamide gel electrophoresis and proteins were transferred to nitrocellulose membranes (Amersham Pharmacia Biotech). […] Blots were probed with anti-mouse or anti-rabbit IgG-HRP (Amersham) and visualised using ECL or ECL Plus detection kit (Amersham).
# M. bovis BCGlux = type: cell-based; details: FIG. 22; for numbers of mycobacteria in primary macrophages: human macrophages, M. bovis BCGlux, 2 h, 0.2 μM rapamycin, 10 μM calpastatin, 500 μM 2′5′ ddA, 50 μM carbamazepine
# [3] = tested on: knockout (KO) Atg5 mouse embryonic fibroblasts (MEFs) transfected with EGFP-HDQ74; assay: EGFP-HDQ74 aggregates in Atg5 knockout mouse embryonic fibroblasts; details: 1 μM, 48 h; FIG. 5
# [4] = tested on: wild type (WT) Atg5 mouse embryonic fibroblasts (MEFs) transfected with EGFP-HDQ74; assay: EGFP-HDQ74 aggregates in wild-type Atg5 mouse embryonic fibroblasts; details: 1 μM, 48 h; FIG. 5
# [5] = tested on: Flies expressing a mutant huntingtin fragment with 120Q in the photoreceptors; assay: Fly HD model: photoreceptor degeneration, rhabdomere counts by pseudopupil technique; type: in vivo, Drosophila; details: in fly food; 1.87 mM verapamil hydrochloride, 500 μM clonidine, nimodipine, tyramine or loperamide; 2 days after eclosion; DMSO control; FIG. 21
# Protocol: Fly culture and crosses were carried out at 25° C. and at 70% humidity, using Instant Fly Food (Philip Harris, Ashby de la Zouch, UK) unless otherwise stated. Flies were raised with a 12 h light: 12 h dark cycle.
# For pseudopupil analysis, heads were removed from adult male flies and mounted on microscope slides using nail polish. The ommatidia were analyzed using a 100× objective and bright field optics with bright illumination, with the observer blinded to the identity of the flies. Rhabdomere counts were carried out by analyzing 15 ommatidia per fly with around 20 flies per experiment for each treatment. The experiment was repeated on three independent occasions. […] A paired Student's t-test was used to compare the three experiment-average scores for each treatment.
# LC3-II [6] = assay: LC3-II levels (cell line not stated); type: cell-based; details: NF449; cell line and concentration not stated
# Protocol: as §1
# Cell pellets were lysed on ice in Laemmli buffer (62.5 mM Tris-HCl pH 6.8, 5% β-mercaptoethanol, 10% glycerol, and 0.01% bromophenol blue) for 30 min in the presence of protease inhibitors (Roche Diagnostics). Samples were subjected to SDS-polyacrylamide gel electrophoresis and proteins were transferred to nitrocellulose membranes (Amersham Pharmacia Biotech). Primary antibodies used include anti-EGFP (8362-1, Clontech), anti-HA (12CA15, Covance), anti-mTOR (2972), anti-Phospho-mTOR (Ser2448) (2971), anti-p70 S6 Kinase (9202), anti Phospho-p70 S6 Kinase (Thr389) (9206), anti-4E-BP1 (9452), anti-Phospho-4E-BP1 (Thr37/46) (9459), all from Cell Signaling Technology, anti-calpain small subunit (μ- or m-calpain) (MAB3083, Chemicon), anti-calpain 1 (MAB3104, Chemicon), anti-calpain 2 domain III (208755, Calbiochem), anti-Gsα (06-237, Upstate), anti-LC3 (NB100-2220, Novus), anti-LC3, anti-actin (A2066, Sigma) and anti-tubulin (Clone DM 1A, Sigma). […]
# Atg5 = Atg5 levels and cleavage in treated cells; type: cell-based; details: for full-length Atg5 levels: cells treated with thapsigargin or calpastatin
# Protocol: Cell pellets were lysed on ice in Laemmli buffer (62.5 mM Tris-HCl pH 6.8, 5% β-mercaptoethanol, 10% glycerol, and 0.01% bromophenol blue) for 30 min in the presence of protease inhibitors (Roche Diagnostics). Samples were subjected to SDS-polyacrylamide gel electrophoresis and proteins were transferred to nitrocellulose membranes (Amersham Pharmacia Biotech). Primary antibodies used include anti-EGFP (8362-1, Clontech), anti-HA (12CA15, Covance), anti-mTOR (2972), anti-Phospho-mTOR (Ser2448) (2971), anti-p70 S6 Kinase (9202), anti Phospho-p70 S6 Kinase (Thr389) (9206), anti-4E-BP1 (9452), anti-Phospho-4E-BP1 (Thr37/46) (9459), all from Cell Signaling Technology, anti-calpain small subunit (μ- or m-calpain) (MAB3083, Chemicon), anti-calpain 1 (MAB3104, Chemicon), anti-calpain 2 domain III (208755, Calbiochem), anti-Gsα (06-237, Upstate), anti-LC3 (NB100-2220, Novus), anti-LC3, anti-actin (A2066, Sigma) and anti-tubulin (Clone DM 1A, Sigma). Blots were probed with anti-mouse or anti-rabbit IgG-HRP (Amersham) and visualised using ECL or ECL Plus detection kit (Amersham).
# [7] = tested on: COS-7 cells transfected with EGFP-HDQ74; assay: EGFP-HDQ74 aggregate formation in transfected COS-7 cells (odds ratio); details: for EGFP-HDQ74 aggregation: 1 mM db-cAMP, 24 μM forskolin, 48 hr post-transfection, FIG. 6; for mutant huntingtin (EGFP-HDQ74) aggregation: 48 h post-transfection, FIG. 9
# calpain = assay: Thapsigargin-induced calpain activation; type: cell-based
# L-type Ca^2+ channel = details: dose-dependent manner; reference 33; cited from earlier work
# [8] = 1 μM rilmenidine or 500 μM 2′5′ ddA, FIG. 7
# [9] = 1 μM, 48 h post-transfection, FIG. 3
# [10] = 48 h, 1 μM PACAP or 200 μM NF449, FIG. 18
compound,measurement,setting,value
"C1COC(NC(C2CC2)C2CC2)=N1 [rilmenidine, 2-[N-(Dicyclopropylmethyl)amino]oxazoline hemifuramate]",EGFP-HDQ74 aggregation,"[1]; 1 μM rilmenidine, 48 hr post-transfection, FIG. 6",decrease
same,LC3-II levels,LC3-II [2]; [8],increased
"Cn1cnc(N)c2ncnc1-2 [3-MA, 3-methyladenine]",effect of rapamycin on mycobacteria in presence of 3-MA,M. bovis BCGlux; 0.2 μM rapamycin with 10 mM 3MA,blocked
COC(=O)C1=C(C)NC(C)=C([N+](=O)[O-])C1c1ccccc1C(F)(F)F (racemic) [(±)-Bay K8644],huntingtin (EGFP-HDQ74) aggregation in autophagy-deficient MEFs (Atg5−/−),[3],no effects
same,EGFP-HDQ74 aggregation,[1]; [9],opposite effects
same,huntingtin (EGFP-HDQ74) aggregation in wild-type MEFs (Atg5+/+),[4],mirrored that in SK-N-SH cells
"Clc1cccc(Cl)c1NC1=NCCN1 [clonidine, N-(2,6-dichlorophenyl)-4,5-dihydro-1H-imidazol-2-amine]",huntingtin (EGFP-HDQ74) aggregation in autophagy-deficient MEFs (Atg5−/−),[3],no effects
same,EGFP-HDQ74 aggregation,[1]; [9],reduced
same,EGFP-HDQ74 toxicity (cell death),[1]; [9],reduced
same,LC3-II levels,"LC3-II [2]; 1 μM, FIG. 4",increased
same,neurodegeneration in HD flies (decrease in number of visible rhabdomeres),[5],attenuated
same,huntingtin (EGFP-HDQ74) aggregation in wild-type MEFs (Atg5+/+),[4],mirrored that in SK-N-SH cells
"O=C(Nc1cc(C(=O)Nc2ccc(S(=O)(=O)O)cc2S(=O)(=O)O)cc(C(=O)Nc2ccc(S(=O)(=O)O)cc2S(=O)(=O)O)c1)Nc1cc(C(=O)Nc2ccc(S(=O)(=O)O)cc2S(=O)(=O)O)cc(C(=O)Nc2ccc(S(=O)(=O)O)cc2S(=O)(=O)O)c1 [NF449, 4,4′,4″, 4′″-(carbonylbis(imino-5,1,3-benzenetriylbis(carbonylimino)))tetrakis-benzene-1,3-disulfonic acid]",EGFP-HDQ74 aggregation,[1]; [10],decreased
same,LC3-II levels,LC3-II [6],increased
C/C=C(/C)C(=O)O[C@H]1C(C)=C2[C@H]([C@@H]1OC(=O)CCCCCCC)[C@@](C)(OC(C)=O)C[C@H](OC(=O)CCC)[C@@]1(O)[C@H]2OC(=O)[C@@]1(C)O [thapsigargin],Atg5 cleavage products,Atg5; cells treated with thapsigargin,no obvious cleavage products
same,full-length Atg5 levels,Atg5,no reduction
CN(C)C(=O)C(CCN1CCC(O)(c2ccc(Cl)cc2)CC1)(c1ccccc1)c1ccccc1 [loperamide],neurodegeneration in HD flies (decrease in number of visible rhabdomeres),[5],attenuated
calpastatin,full-length Atg5 levels,Atg5,no increase
same,numbers of mycobacteria in primary macrophages,M. bovis BCGlux,reduced
"PACAP: pituitary adenylate cyclase-activating polypeptide, natural ligand activating Gsα; PACAP 38, Ovine from Calbiochem (HSDGIFTDSYSRYRKQMAVKKYLAAVLGKRYKQRVKNK; ends and bridges not checked; UniProt P16613 132-169, looked up)",EGFP-HDQ74 aggregation,[1]; [10],enhanced
"C[C@H]1O[C@@H](n2cnc3c(N)ncnc32)C[C@@H]1O [2′5′ddA, 2′5′-dideoxyadenosine]",LC3-II levels,LC3-II [2]; [8],increased
same,numbers of mycobacteria in primary macrophages,M. bovis BCGlux,reduced
same,EGFP-HDQ74 aggregation,[7]; 500 μM 2′5′ ddA,decreased
same,enhanced EGFP-HDQ74 aggregation mediated by overexpression of wild-type or constitutive active m-calpain,"[7]; 500 μM 2′5′ ddA, 48 h, FIG. 20",decreased
COc1ccc(CCN(C)CCCC(C#N)(c2ccc(OC)c(OC)c2)C(C)C)cc1OC (centres unmarked) [verapamil],huntingtin (EGFP-HDQ74) aggregation in autophagy-deficient MEFs (Atg5−/−),[3],no effects
same,LC3-II levels,"LC3-II [2]; 1 μM, FIG. 4",increased
same,huntingtin (EGFP-HDQ74) aggregation in wild-type MEFs (Atg5+/+),[4],mirrored that in SK-N-SH cells
"NCCc1ccc(O)cc1 [tyramine, 4-hydroxy-phenethylamine]",neurodegeneration in HD flies (decrease in number of visible rhabdomeres),[5],attenuated
"CCCC(=O)Nc1ncnc2c1ncn2[C@@H]1O[C@@H]2COP(=O)(O)O[C@H]2[C@H]1OC(=O)CCC [dibutyryl cAMP, N^6,2-O-Dibutyryl-cAMP]",EGFP-HDQ74 aggregation,[7]; 500 μM 2′5′ ddA,opposite effects
"CO[C@@H]1[C@@H]2OP(=O)(O)OC[C@H]2O[C@H]1n1c(Sc2ccc(Cl)cc2)nc2c(N)ncnc21 [8-CPT-2-Me-cAMP, 8-(4-Chlorophenylthio)-2′-0-methyl-cAMP]",8-CPT-2-Me-cAMP effect on huntingtin aggregation in presence of dominant-negative Rap2B,"[7]; 10 μM 8-CPT-2Me-cAMP, 48 h, co-transfected dominant-negative Rap2B, FIG. 13",abrogated
same,mutant huntingtin (EGFP-HDQ74) aggregation,[7]; 10 μM,enhanced
"Cc1ccc(S(=O)(=O)NC(=O)NN2CCCCCC2)cc1 [tolazamide, 3-azepan-1-yl-1-(4-methylphenyl)sulfonyl-urea]",clearance of autophagy substrates (EGFP-HDQ74 aggregates),"[7]; 10 μM, 48 hours post transfection, DMSO control, FIG. 15",slow
"O=C(Nc1ncnc2c1ncn2[C@@H]1O[C@@H]2COP(=O)(O)O[C@H]2[C@H]1O)c1ccccc1 [6-Bnz-cAMP, N^6Benzoyl-cAMP]",mutant huntingtin (EGFP-HDQ74) aggregation,[7]; 10 μM,no effects
"Nc1cc(N2CCCCC2)nc(N)[n+]1[O-] [minoxidil, 6-(1-Piperidinyl)-2,4-pyrimidinediamine 3-oxide]",thapsigargin-induced calpain activation,calpain,decrease
same,huntingtin (EGFP-HDQ74) aggregation in autophagy-deficient MEFs (Atg5−/−),[3],no effects
same,LC3-II levels,"LC3-II [2]; 1 μM, FIG. 4",increased
same,whole-cell L-type Ca2+ channel currents,L-type Ca^2+ channel,decreases
same,huntingtin (EGFP-HDQ74) aggregation in wild-type MEFs (Atg5+/+),[4],mirrored that in SK-N-SH cells

# Source: patent publication US20100113379A1, “cAMP DEPENDENT INDUCTION OF AUTOPHAGY” (priority 2007, published 2010)
